Measured values published in the antibiotic and cytotoxicity screens of Wong et al. (2023).
This is one part of the list.

Columns and labels:
HSkMC = human skeletal muscle cells; assay: cytotoxicity call (relative viability < 0.9); conditions: 10 µM
HepG2 = assay: cytotoxicity call (relative viability < 0.9); conditions: 10 µM
S. aureus RN4220 = assay: growth inhibition call (relative growth <= 0.2); conditions: 50 µM

| SMILES | cytotoxicity call (HSkMC) | cytotoxicity call (HepG2) | growth inhibition call (S. aureus RN4220) |
| --- | --- | --- | --- |
| COc1ccc(S(=O)(=O)Nc2cccc3c2O[C@@H](CN(C)C(=O)Nc2c(C)noc2C)[C@H](C)CN([C@@H](C)CO)C3=O)cc1 | inactive | inactive | inactive |
| COc1ccc(NC(=O)Nc2ccc3c(c2)C(=O)N([C@H](C)CO)C[C@H](C)[C@H](CN(C)S(=O)(=O)c2ccc(Cl)cc2)OCCCC[C@H](C)O3)cc1 | inactive | inactive | inactive |
| C[C@@H]1CN([C@H](C)CO)C(=O)Cc2cc(NC(=O)CCN3CCOCC3)ccc2O[C@H]1CN(C)CC1CC1 | inactive | inactive | inactive |
| COCC(=O)Nc1ccc2c(c1)C(=O)N(C)[C@@H]1CC[C@H](CC(=O)N3CCc4ccccc4C3)O[C@@H]1CO2 | inactive | inactive | inactive |
| Cc1noc(C)c1NC(=O)N[C@@H]1C=C[C@H](CC(=O)N2CCN(C)CC2)O[C@@H]1CO | inactive | inactive | inactive |
| COc1ccc(S(=O)(=O)Nc2ccc3c(c2)CC(=O)N([C@@H](C)CO)C[C@H](C)[C@@H](CN(C)S(=O)(=O)c2ccc(C)cc2)O3)cc1 | inactive | inactive | inactive |
| CN(C)CCCNc1ncnc(N)c1[N+](=O)[O-] | inactive | inactive | inactive |
| Cc1cc2cccc(C(=O)N[C@H]3CC[C@@H](N)CC3)c2o1 | inactive | inactive | inactive |
| C[C@@H]1CN([C@H](C)CO)C(=O)c2cc(NS(C)(=O)=O)ccc2O[C@@H]1CN(C)C(=O)Nc1ccc2c(c1)OCO2 | inactive | inactive | inactive |
| C[C@@H]1CN([C@H](C)CO)C(=O)c2cc(NS(=O)(=O)c3ccc(F)cc3)ccc2O[C@@H]1CN(C)S(=O)(=O)c1ccc(F)cc1 | inactive | inactive | inactive |
| C=CCOC(=O)[C@@H]1[C@H]2C(=O)O[C@H](c3ccccc3)[C@H](c3ccccc3)N2[C@H](c2ccc(OCCOC(=O)[C@H]3C[C@H]4C(=O)N[C@@H](CCCC[N+](C)(C)C)C(=O)N4[C@H]3c3cccc(OCCO)c3)cc2)[C@@]12C(=O)Nc1ccccc12 | inactive | inactive | inactive |
| C[C@@H]1CN([C@H](C)CO)C(=O)Cc2cc(NC(=O)CCN3CCOCC3)ccc2O[C@H]1CN(C)Cc1ccncc1 | inactive | inactive | inactive |
| O=C(C[C@H]1CC[C@H]2[C@@H](COC[C@H](O)CN2C(=O)c2ccccc2F)O1)N1CCN(c2ccccc2)CC1 | inactive | inactive | inactive |
| Cn1nc(Cn2ccnc2)c2c1CN(CCO)C2 | inactive | inactive | inactive |
| CC(C)(C)c1cccc(CN)c1 | inactive | inactive | inactive |
| C[C@H]1CCCCO[C@@H](CN(C)C(=O)NC2CCCCC2)[C@@H](C)CN([C@@H](C)CO)C(=O)c2cc(NC(=O)c3ccccc3)ccc2O1 | inactive | inactive | inactive |
| C[C@@H]1CN([C@H](C)CO)C(=O)c2cc(NS(=O)(=O)c3cccs3)ccc2O[C@@H]1CN(C)S(=O)(=O)c1ccc(F)cc1 | inactive | inactive | inactive |
| COc1ccc(CN(C)C[C@@H]2OCCCC[C@@H](C)Oc3ccc(NC(=O)Nc4ccc(F)cc4)cc3C(=O)N([C@@H](C)CO)C[C@H]2C)cc1 | inactive | active | inactive |
| COc1ccc(S(=O)(=O)Nc2ccc3c(c2)C(=O)N([C@H](C)CO)C[C@@H](C)[C@H](CN(C)S(=O)(=O)c2cccs2)O3)cc1 | inactive | inactive | inactive |
